Measured values published in publication PMC6919601, “Identification of Plasmodium dipeptidyl aminopeptidase allosteric inhibitors by high throughput screening” (PLoS ONE, 2019).
“And” between values parts separate entries of the source, which are not always exact repeats. Equal entries are not always repeated. The whole screen tested about 110,000 compounds, of which about 230 (0.21%) showed an effect of 50% or more. The list shows a part of the results.
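Note: 30 min substrate incubation versus DMSO and 10 µM JCP410 controls.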

The compounds below were run against DPAP1 (Plasmodium falciparum, UniProt Q8IIJ9) (assay: primary screen, percent inhibition; read by cleavage of a fluorogenic dipeptide substrate; higher = more effect of the substance).
Chain of DPAP1 (Q8IIJ9 whole entry, looked up): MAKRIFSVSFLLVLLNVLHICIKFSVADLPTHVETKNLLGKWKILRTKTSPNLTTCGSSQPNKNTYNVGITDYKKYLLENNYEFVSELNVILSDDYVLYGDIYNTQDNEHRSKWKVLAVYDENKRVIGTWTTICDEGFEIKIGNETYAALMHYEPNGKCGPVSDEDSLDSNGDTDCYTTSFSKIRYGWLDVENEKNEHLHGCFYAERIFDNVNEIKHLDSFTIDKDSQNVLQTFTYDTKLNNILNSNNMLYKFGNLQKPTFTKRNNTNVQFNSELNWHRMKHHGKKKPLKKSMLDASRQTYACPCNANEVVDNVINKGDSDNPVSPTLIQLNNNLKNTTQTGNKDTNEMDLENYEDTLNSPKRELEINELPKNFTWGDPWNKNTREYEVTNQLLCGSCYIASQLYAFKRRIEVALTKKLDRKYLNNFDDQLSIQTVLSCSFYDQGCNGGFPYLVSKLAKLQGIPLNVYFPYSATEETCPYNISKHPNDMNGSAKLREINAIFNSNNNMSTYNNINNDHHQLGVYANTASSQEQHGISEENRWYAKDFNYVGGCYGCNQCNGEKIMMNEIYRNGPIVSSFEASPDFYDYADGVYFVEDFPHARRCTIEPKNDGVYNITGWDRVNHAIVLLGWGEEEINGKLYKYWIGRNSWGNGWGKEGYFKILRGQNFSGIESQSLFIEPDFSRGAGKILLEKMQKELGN
Design: species or system P. falciparum D10 trophozoite lysates; single well
With Cc1ccc(NC(=O)c2cc3ccccc3oc2=O)c(C)c1 the “% Inhibition @ 10 uM” value was 4.6%.
CC1(C)CC(=O)C2=C(C1)N(c1ccccc1)C(N)=C(C#N)C2c1ccccc1 (stereo not shown) was tested, and the “% Inhibition @ 10 uM” value was -3.19%.
Cc1sc(NC(=O)/C=C/C(=O)O)c(C#N)c1C was tested, and the “% Inhibition @ 10 uM” value was -0.906%.
With Cc1c2cnn(CC(=O)NCCC3=CCCCC3)c(=O)c2c(C)n1Cc1ccccc1 the “% Inhibition @ 10 uM” value was 4.4%.
CC1(C)CC(NC(=O)c2ccccc2)CC(C)(C)N1O was tested, and the “% Inhibition @ 10 uM” value was 2.8%.
For CCOC(=O)c1c(N)n(C(=O)c2ccccc2)[nH]c1=O, the “% Inhibition @ 10 uM” value was -2.05%.
In the case of CCc1ccc(C2C=C(c3ccc(Br)cc3)Nc3nnnn32)cc1 (stereo not shown), the “% Inhibition @ 10 uM” value was 0.0842%.
With N#CC(C(=O)NCc1ccco1)c1ccccc1 (stereo not shown) the “% Inhibition @ 10 uM” value was -6.42%.
With CC(/C=C(\O)c1cccnc1)=N\c1cccc(Cl)c1C the “% Inhibition @ 10 uM” value was -10.2%.
CCCCSc1nnc2c(n1)OC(c1ccccc1)Nc1ccccc1-2 (stereo not shown) was tested, and the “% Inhibition @ 10 uM” value was -6.88%.
In the case of OC(COc1ccc(Cl)cc1)CN1CCC(Cc2ccccc2)CC1 (stereo not shown), the “% Inhibition @ 10 uM” value was -3.94%.
With O=C(Nc1ccccn1)Nc1cccs1 the “% Inhibition @ 10 uM” value was -1.7%.
CC(C)OCCCNC(=O)CN1C(=O)c2ccccc2S1(=O)=O was tested, and the “% Inhibition @ 10 uM” value was -0.671%.
For O=C(NCCC1=CCCCC1)C1CCN(c2nn3cc(-c4ccc(F)cc4)nc3s2)CC1, the “% Inhibition @ 10 uM” value was 4.11%.
In the case of Cc1cc(/C=C2\C(=O)NC(=O)N(C)C2=O)c(C)n1-c1ccccc1F, the “% Inhibition @ 10 uM” value was 18.3%.
COc1cccc(NC(=O)c2cc(NC(=O)c3ccccc3)cc(NC(=O)c3ccccc3)c2)c1 was tested, and the “% Inhibition @ 10 uM” value was -1.61%.
COc1ccc(S(=O)(=O)Nc2ccc(S(=O)(=O)N3CCOCC3)cc2)c(Cl)c1Cl was tested, and the “% Inhibition @ 10 uM” value was 4.81%.
COC(=O)C1=CN(C(C)C)C=C(C(=O)OC)C1c1ccsc1 was tested, and the “% Inhibition @ 10 uM” value was 1.86%.
COc1ccc(-n2c(Cc3cccn3C)nnc2SCC(=O)N2CCOCC2)cc1 was tested, and the “% Inhibition @ 10 uM” value was 2.74%.
CCSC1=C(C#N)C(c2ccccc2C)CC(=O)N1 (stereo not shown) was tested, and the “% Inhibition @ 10 uM” value was -8.98%.
In the case of CC(=O)NCCOc1c(C)cc(S(N)(=O)=O)cc1C, the “% Inhibition @ 10 uM” value was 2.1%.
OC1C2(c3ccccc3)CN3CC1(c1ccccc1)CN(C2)C3c1c[nH]c2ccccc12 (stereo not shown) was tested, and the “% Inhibition @ 10 uM” value was 1.9%.
For COc1cc(-c2nc3c4c(C)c(C)oc4ncn3n2)cc(OC)c1OC, the “% Inhibition @ 10 uM” value was -1.88%.
In the case of CC1(C)CC(=O)c2c(nc3ccccc3c2NCc2ccccc2)C1, the “% Inhibition @ 10 uM” value was 0.611%.
In the case of COc1ccccc1C(=O)NCC1CCCO1 (stereo not shown), the “% Inhibition @ 10 uM” value was 1.54%.
O=C1c2ccccc2C(=O)N1CC(=O)n1nc(-c2cccnc2)nc1NCc1ccc(F)cc1 was tested, and the “% Inhibition @ 10 uM” value was 0.558%.
In the case of COc1cccc(Cn2c(C)c(CNCc3ccc(C)o3)c(C(=O)O)c2C)c1, the “% Inhibition @ 10 uM” value was 2.99%.
N#Cc1ccc(-c2ccc3c(c2)OCO3)nc1SCC(=O)Nc1cc(F)ccc1F was tested, and the “% Inhibition @ 10 uM” value was -2.77%.
C=CC(=O)NC1(CC(C)CC)CCCCC1 (stereo not shown) was tested, and the “% Inhibition @ 10 uM” value was 4.03%.
In the case of CC(C)C[C@H](NC(=O)c1ccc(OCCCc2ccccn2)cc1)C(=O)NCC#N, the “% Inhibition @ 10 uM” value was -0.778%.
O=C(O)C1C2C=CC3(CN(CCc4ccccc4)C(=O)C13)O2 (stereo not shown) was tested, and the “% Inhibition @ 10 uM” value was -3.74%.
For COc1cc2c(cc1OC)C(O)C(C)(C)NC2 (stereo not shown), the “% Inhibition @ 10 uM” value was 2.22% and 1.72%.
In the case of NS(=O)(=O)c1cccc(Nc2nc3ccccc3nc2NS(=O)(=O)c2ccccc2)c1, the “% Inhibition @ 10 uM” value was -2.72%.
In the case of CC(=O)N1CCc2c(sc3nc(SCc4cccc(F)c4)n(Cc4ccco4)c(=O)c23)C1, the “% Inhibition @ 10 uM” value was 2.97%.
For Cc1ccc(Cn2c(=N)n(CCO)c3ccccc32)cc1, the “% Inhibition @ 10 uM” value was 3.81%.
COc1ccc(Cl)cc1C(=O)O/N=C1/C=C(C(C)C)C(=O)C=C1C was tested, and the “% Inhibition @ 10 uM” value was -2.14%.
In the case of Cc1ccc(CNC(=O)c2nnc(Cc3c(F)cccc3Cl)o2)cc1, the “% Inhibition @ 10 uM” value was 1.49%.
For Cc1c(C(=O)NC2CCCCCC2)cccc1[N+](=O)[O-], the “% Inhibition @ 10 uM” value was -4.15%.
For CCN(CC)C(=O)C1CCCN(Cc2ccccc2C(F)(F)F)C1 (stereo not shown), the “% Inhibition @ 10 uM” value was 4.81%.
For Cc1ccccc1NS(=O)(=O)c1cc(Cl)ccc1Cl, the “% Inhibition @ 10 uM” value was 0.247%.
In the case of CNS(=O)(=O)c1ccc(Oc2ccc(S(=O)(=O)NC)cc2)cc1, the “% Inhibition @ 10 uM” value was -3.55%.
In the case of O=C(Cn1nc(Cc2cccnc2)c2ccccc2c1=O)N1CCOCC1, the “% Inhibition @ 10 uM” value was -1.21%.
With CCCCOC(=O)C1=C(C)NC(=O)NC1c1ccccc1OCC (stereo not shown) the “% Inhibition @ 10 uM” value was 18.1%.
In the case of CCOc1ccc(C(=O)C2=C(O)C(=O)N(CC3CCCO3)C2c2cccs2)cc1 (stereo not shown), the “% Inhibition @ 10 uM” value was 1.57%.
With CCOC(=O)c1[nH]c(C)c(C(=O)C(C)CC)c1C (stereo not shown) the “% Inhibition @ 10 uM” value was -0.274%.
O=C(NCCc1c[nH]c2ccccc12)C(Cc1ccccc1)N1Cc2ccccc2C1=O (stereo not shown) was tested, and the “% Inhibition @ 10 uM” value was 0.0322%.
In the case of CCn1c2ccccc2c2cc(CN3CCN(CCO)CC3)ccc21, the “% Inhibition @ 10 uM” value was 3.48%.
CCCN1C(=O)c2ccccc2NC1c1ccc(O)c(OC)c1 (stereo not shown) was tested, and the “% Inhibition @ 10 uM” value was -0.48%.
With Fc1ccccc1N1CCN(Cc2ccccc2Cl)CC1 the “% Inhibition @ 10 uM” value was -0.192%.
In the case of Cc1cc(C)n(-c2cc(N3CCOCC3)ncn2)n1, the “% Inhibition @ 10 uM” value was 0.708%.
For O=S(=O)(Nc1cccc(O)c1)c1ccc(Cl)cc1, the “% Inhibition @ 10 uM” value was -0.546%.
In the case of CCOC(=O)N1CCN(c2c(NCCCN3CCCC(C)C3)c(=O)c2=O)CC1 (stereo not shown), the “% Inhibition @ 10 uM” value was -1.65%.
With CN1CCc2nc3sc(C#N)c(N)c3c(-c3cccs3)c2C1 the “% Inhibition @ 10 uM” value was -4.43%.
In the case of Cc1ccc(-c2nc(C(=O)NC3CCN(Cc4ccccc4)CC3)c3n2CCCCC3)cc1, the “% Inhibition @ 10 uM” value was 1.97%.
CS/C(=N\CC1CCCO1)Nc1[nH]nc(C)c1-c1ccccc1F (stereo not shown) was tested, and the “% Inhibition @ 10 uM” value was 2.73%.
CCS(=O)(=O)c1nc(S(=O)(=O)c2ccc(Cl)cc2)c(N2CCC(C)CC2)s1 was tested, and the “% Inhibition @ 10 uM” value was -2.25%.
For O=C(Cc1ccccc1)NCCc1c[nH]c2ccccc12, the “% Inhibition @ 10 uM” value was -5.69%.
In the case of CCCOc1ccc(C(=O)C2=C(O)C(=O)N(CCCN3CCOCC3)C2c2ccc(C)cc2)c(C)c1 (stereo not shown), the “% Inhibition @ 10 uM” value was 1.31%.
Cc1ccc(C2c3c(-c4ccccc4O)n[nH]c3C(=O)N2Cc2ccncc2)cc1 (stereo not shown) was tested, and the “% Inhibition @ 10 uM” value was 10.6%.
COc1cc2c(N3CCCCCC3)cc(O)c(CC(=O)Nc3ccccc3)c2cc1OC was tested, and the “% Inhibition @ 10 uM” value was 12.1%.
CCOc1ccccc1C1C(C#N)=C(SC)N=C2CCCC(O)=C21 (stereo not shown) was tested, and the “% Inhibition @ 10 uM” value was -1.4%.
CCC(C)(NC(=O)CNC(=O)c1ccccc1)C(=O)NC1CCCC1 (stereo not shown) was tested, and the “% Inhibition @ 10 uM” value was 3.61%.
For Cn1c(=O)[nH]c(=O)c2[nH]c(Cc3ccccc3)nc21, the “% Inhibition @ 10 uM” value was 7.86%.
With CCOc1ccccc1N(CC(=O)NC1CC2CCC1C2)S(=O)(=O)c1ccccc1 (stereo not shown) the “% Inhibition @ 10 uM” value was -7.62%.
With CC1=C(C(=O)Nc2cccnc2)C(c2ccc(Cl)cc2)n2nc(-c3cccnc3)nc2N1 (stereo not shown) the “% Inhibition @ 10 uM” value was -3.28%.
With CC(C)Sc1cc(N2CCOCC2)nc(-c2ccccc2)n1 the “% Inhibition @ 10 uM” value was 2.63%.
O=C1C2C3C=CC(CC3)C2C(=O)N1c1cc(C(F)(F)F)ccc1Cl (stereo not shown) was tested, and the “% Inhibition @ 10 uM” value was -5.31%.
Cn1nc(C(=O)NCc2ccc3c(c2)OCO3)c2c1-c1ccccc1SC2 was tested, and the “% Inhibition @ 10 uM” value was 86.5%.
With COc1cccc(N2CCN(C3CCC(c4ccccc4)CC3)CC2)c1 (stereo not shown) the “% Inhibition @ 10 uM” value was -3.5%.
With CC1CCc2c(sc3nc(SCC(=O)O)nc(N)c23)C1 (stereo not shown) the “% Inhibition @ 10 uM” value was -2.37%.
With COc1ccc(S(=O)(=O)N2CCSC2c2ccccc2Cl)cc1 (stereo not shown) the “% Inhibition @ 10 uM” value was 68.6%.
In the case of CCOCCCNC(=O)CCc1cn(Cc2ccc(F)cc2)c2ccccc12, the “% Inhibition @ 10 uM” value was 0.0244%.
Cc1ccc(CCNC(=O)c2csc3c2CCCCC3)cc1 was tested, and the “% Inhibition @ 10 uM” value was 3.54%.
With O=C1C2CCCCN2C(=O)N1CCCCN1CCN(c2cccc(C(F)(F)F)c2)CC1 (stereo not shown) the “% Inhibition @ 10 uM” value was -0.318%.
In the case of Cc1ccc(NC(C)(C)c2nnnn2C(/C=C\c2ccc(Cl)cc2Cl)C(C)(C)C)cc1 (stereo not shown), the “% Inhibition @ 10 uM” value was 7.14%.
In the case of COCCn1c(COc2ccc(Cl)cc2)nc2ccccc21, the “% Inhibition @ 10 uM” value was -1.66%.
In the case of C=CCOc1c(Cl)cc(CNC(C)(C)C)cc1OC, the “% Inhibition @ 10 uM” value was 2.01%.
For O=C(NCc1ccc2c(c1)OCO2)c1ccc2c(c1)ncn2C1CCCC1, the “% Inhibition @ 10 uM” value was 2.05%.
For COc1cc(C2CC(=O)N3C(=C2C#N)SCC3(O)c2ccc(Cl)cc2)ccc1O (stereo not shown), the “% Inhibition @ 10 uM” value was -0.0235%.
In the case of CCOC(=O)CCNc1nnc(S)nc1O, the “% Inhibition @ 10 uM” value was -1.29%.
With Cc1ccc(-c2nc3ncccc3o2)cc1NC(=O)C(C)C the “% Inhibition @ 10 uM” value was 2.08%.
N#CC1=C(Nc2ccc(Cl)cc2)CCC1 was tested, and the “% Inhibition @ 10 uM” value was 1.7%.
With OCCN1CCN(C2Cc3ccc(Cl)cc3Sc3ccc(F)cc32)CC1 (stereo not shown) the “% Inhibition @ 10 uM” value was -2.29%.
O=C(c1ccccc1)c1ccc(C(=O)O)c(C(=O)O)c1 was tested, and the “% Inhibition @ 10 uM” value was -9.55%.
For C=CCOc1ccc(CNC(C)(C)C)cc1OC, the “% Inhibition @ 10 uM” value was 1.84%.
CCC(C)NC(=O)CSc1nc2nc(C)c(Cc3cccc(C)c3)c(C)n2n1 (stereo not shown) was tested, and the “% Inhibition @ 10 uM” value was -3.89%.
With COc1ccc(C(=O)Nc2nc(C)c(C(=O)N(C)C)s2)cc1OC the “% Inhibition @ 10 uM” value was 0.431%.
In the case of COc1cc2c(C)nc(O)c(CC(=O)Nc3ccccc3)c2cc1OC, the “% Inhibition @ 10 uM” value was 18%.
For O=C1NCCCC[C@@H]1Nc1ccc(C(F)(F)F)cn1, the “% Inhibition @ 10 uM” value was -4.8%.
Nc1nc(Cn2nnc(-c3ccccc3F)n2)nc(N2CCOCC2)n1 was tested, and the “% Inhibition @ 10 uM” value was -1.46%.
With N#CCNC(=O)[C@@H](Cc1ccncc1)NC(=O)OCc1ccccc1 the “% Inhibition @ 10 uM” value was -1.5%.
For COc1cccc(/C=C(\C#N)c2nc3ccccc3[nH]2)c1OC, the “% Inhibition @ 10 uM” value was 1.08%.
In the case of COc1ccccc1OCCSc1nc(-c2ccccc2F)nc2cc(=O)[nH]n12, the “% Inhibition @ 10 uM” value was -0.12%.
In the case of COCCn1c(=N)c(C(=O)NCc2cccnc2)cc2c(=O)n3cc(C)ccc3nc21, the “% Inhibition @ 10 uM” value was 3.6%.
In the case of COc1ccc(/C=C(\NC(=O)c2ccco2)C(N)=O)cc1, the “% Inhibition @ 10 uM” value was -1.36%.
For COc1ccc(C(=O)N(Cc2ccccc2F)C2CCS(=O)(=O)C2)cc1Cl (stereo not shown), the “% Inhibition @ 10 uM” value was 6.67%.
With C/C(=C1/C(=O)N(c2nc3ccccc3s2)N=C1CSc1ccc(Cl)cc1)N1CCOCC1 the “% Inhibition @ 10 uM” value was 1.26%.
Cc1cc(C)n2nc3nc(N4CCOCC4)nc(-c4ccc(C(C)C)cc4)c3c2n1 was tested, and the “% Inhibition @ 10 uM” value was 2.64%.
For CS(=O)(=O)N(CC(=O)NCCSc1ccccc1)c1cccc(Cl)c1, the “% Inhibition @ 10 uM” value was -8.78%.
In the case of COCCNC(=S)NCCc1c(C)[nH]c2ccc(OC)cc12, the “% Inhibition @ 10 uM” value was 4.41%.
